Measurements: PubChem BioAssay AID1259400 (National Center for Advancing Translational Sciences (NCATS), 2018)
Hit rate of the full screen: of about 350,000 compounds, about 2,100 (0.6%) were called active. The inconclusive results got no clear call from the source; some entries with a clear call stand among them for comparison.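 How the source made its calls: active means activity change of -60% or lower, but not beyond a set lower limit; inconclusive means change between -60% and -40%, or beyond the set limit; inactive means change above -40%.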

These molecules were tested against Relaxin receptor 1 (Homo sapiens) (UniProt Q9HBX9) (assay: qHTS Assay for Antagonists of the Relaxin Receptor RXFP1). Settings: HEK293-RXFP1, relaxin-stimulated cAMP HTRF, 30 min; at 57.5 µM; active compounds read low.
UniProt Q9HBX9, sequence (Q9HBX9 whole entry, looked up): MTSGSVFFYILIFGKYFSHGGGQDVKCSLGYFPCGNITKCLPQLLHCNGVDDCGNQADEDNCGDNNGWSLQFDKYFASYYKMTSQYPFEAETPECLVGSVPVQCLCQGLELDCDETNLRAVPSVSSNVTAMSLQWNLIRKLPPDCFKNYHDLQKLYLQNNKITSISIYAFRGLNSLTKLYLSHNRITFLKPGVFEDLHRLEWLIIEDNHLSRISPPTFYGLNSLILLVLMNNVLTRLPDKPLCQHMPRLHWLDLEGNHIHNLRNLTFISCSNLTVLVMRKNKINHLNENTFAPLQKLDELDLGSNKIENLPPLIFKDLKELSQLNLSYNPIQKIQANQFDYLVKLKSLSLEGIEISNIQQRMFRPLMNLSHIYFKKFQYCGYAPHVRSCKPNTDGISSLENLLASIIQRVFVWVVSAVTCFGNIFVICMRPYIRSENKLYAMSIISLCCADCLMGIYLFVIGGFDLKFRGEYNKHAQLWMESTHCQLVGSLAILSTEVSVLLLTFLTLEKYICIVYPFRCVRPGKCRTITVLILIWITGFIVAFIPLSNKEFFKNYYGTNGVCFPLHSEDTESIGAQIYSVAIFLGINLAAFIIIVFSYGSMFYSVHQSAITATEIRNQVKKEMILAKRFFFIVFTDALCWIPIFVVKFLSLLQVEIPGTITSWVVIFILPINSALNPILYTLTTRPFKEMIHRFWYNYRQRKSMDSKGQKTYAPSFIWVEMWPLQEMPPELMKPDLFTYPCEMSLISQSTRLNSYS
On the % scale 0 is the no-effect control and ±100 the full control effect.

| Structure (SMILES) | activity change, negative = inhibition |
| --- | --- |
| Cc1ccc(Cn2cc(C(=O)c3ccc(F)cc3)c(=O)c3cc4c(cc32)OCCO4)cc1 | inconclusive: -57.7% |
| CC/C(=N\NC(=O)CNC(=O)/C=C/c1ccco1)c1ccccc1 | inconclusive: -46.1% |
| COC(=O)c1ccccc1NC(=O)NCc1ccco1 | inactive: 5.04% |
| COc1cccc(C(=O)N2c3nc(-c4ccco4)nn3C3(CCCCC3)[C@@H]3CCCC[C@@H]32)c1 | active: -64.8% |
| COc1ccc(OC)c(CN2CCN(CC(=O)Nc3ccccc3C(=O)NC3CC3)CC2)c1 | inactive: 2.9% |
| COc1ccc(OCc2nc(N)nc(Nc3ccccc3)n2)cc1 | inactive: -18.3% |
| COc1cccc(-c2cn3c(n2)sc2cc(C(=O)NCCCc4ccccc4)ccc23)c1 | inactive: 12% |
| Cc1cc(C(=O)Nc2ccc(S(=O)(=O)Nc3onc(C)c3C)cc2)c(C)o1 | inactive: -3.62% |
| O=C(Cc1ccccc1)Nc1sc2c(c1C(=O)Nc1ccccc1)CCCCC2 | inconclusive: -55.7% |
| C=CCOC(=O)C1=C(C)NC(SCC(=O)OCC)=C(C#N)C1c1ccc(C)cc1 (centres undefined) | inconclusive: -42.2% |
| COc1ccc(Nc2nc(N3CCCCC3)c3ccccc3n2)cc1 | active: -65.6% |
| CCc1nnc(NC(=O)c2ccc(Cl)c(S(=O)(=O)N3CCc4ccccc43)c2)s1 | inconclusive: -50.2% |
| CC(C)O/N=C1\C(=O)N(c2ccccc2)c2ccccc21 | inconclusive: -42.8% |
| CC(C)NC(=O)c1ccccc1N(Cc1ccccc1)S(C)(=O)=O | inactive: 9.44% |
| COc1ccc(-n2c(=S)[nH]c3cc(C(=O)NCc4cccnc4)ccc3c2=O)c(OC)c1 | active: -71.1% |
| COc1cc(OC)cc(C(=O)NNC(=O)CN2C(=O)NC(C)(c3ccc(C)cc3)C2=O)c1 (centres undefined) | inconclusive: -58.5% |
| C(=N\Nc1nc(Nc2ccccc2)nc(Nc2ccccc2)n1)/c1ccncc1 | active: -60.9% |
| Cc1ccc(-c2nn(-c3ccccc3)cc2CNCc2ccccc2)cc1 | inconclusive: -47.3% |
| COC(=O)c1ccc2c(c1)C(C)(C)C(/C=C/c1ccc(O)cc1)=[N+]2C | inconclusive: -57.2% |
| O=C(NCc1cccnc1)C1CCN(S(=O)(=O)c2cc(Cl)ccc2Cl)CC1 | active: -88% |
| O=C(Nc1ccc2c(c1)C(=O)N(CC1CCCO1)C2=O)c1cccc(Br)c1 (centres undefined) | inactive: -5.9% |
| Cc1nc2nc(SCC(=O)NCCc3ccc(Cl)cc3)nn2c(C)c1Cc1ccccc1Cl | inconclusive: -44.9% |
| O=C(c1ccc(N2CCCCS2(=O)=O)cc1)N1CCN(c2ccccc2F)CC1 | inconclusive: -51.4% |
| Cn1c(/C(C#N)=C(\O)c2ccc(Cl)s2)nc2ccccc21 | inactive: 3.15% |
| Fc1ccc(Nc2nc(SCc3ccccc3F)nc3ccccc23)cc1 | inconclusive: -42% |
| CCc1ccc(S(=O)(=O)Nc2ccc3[nH]c(=O)sc3c2)cc1 | inactive: 4.24% |
| CS(=O)(=O)c1ccc(C(=O)OCC(=O)NC23CC4CC(CC(C4)C2)C3)cc1[N+](=O)[O-] | active: -64.9% |

| Structure (SMILES) | activity change, negative = inhibition |
| --- | --- |
| Cc1ccccc1N(C(=O)c1snc(C(N)=O)c1N)C(C(=O)NCC1CCCO1)c1ccc(F)cc1 (centres undefined) | active: -90.3% |
| CCCCSCCCNC(=O)c1cn(C)c2ccc(S(=O)(=O)N3CCCCCC3)cc2c1=O | inactive: -10.3% |
| O=C(Nc1ccccc1)Nc1snnc1C(=O)Nc1cccc(O)c1 | inconclusive: -42.1% |
| Cc1ccc(C(=O)Nc2cccc(Oc3ccccc3)c2)o1 | active: -71.8% |
| O=C(CCCn1c(=S)[nH]c2ccccc2c1=O)N1CCN(c2cccc(Cl)c2)CC1 | active: -89% |
| CCn1c2ccccc2c2cc(/C=N/NC(=O)c3cc(O)cc(O)c3)ccc21 | active: -83% |
| COc1ccc(/C=C2\SC(=O)N(CCNC(=O)C3=COCCO3)C2=O)cc1 | inactive: -21.6% |
| Cc1cccc(OCC(=O)N/N=C/C=C/c2ccco2)c1 | inconclusive: -47.8% |
| Cc1ccc(NC(=O)C2CCN(S(=O)(=O)c3c(C)noc3/C=C/N(C)C)CC2)cc1 | active: -112% |
| N#Cc1c2n(c3c(=O)n(Cc4ccc(Cl)cc4)cnc13)CCCC2 | inactive: -17.8% |
| COCCNC(=O)CSc1nnc(-c2ccccc2F)n1Cc1ccccc1 | inconclusive: -49.3% |
| Cc1cc(C(=O)COC(=O)c2ccc(NC(=O)CC#N)cc2)c(C)n1-c1ccc(OC(F)F)cc1 | active: -62.1% |
| C=CCN(c1ccccc1OC)S(=O)(=O)c1cccc(C(=O)Nc2nnc(C3CC3)s2)c1 | inconclusive: -40.3% |
| COc1cc(CNCCO)cc(Br)c1OCc1ccccc1Cl | active: -75.9% |
| COc1ccccc1N1CCN(C(=S)Nc2ccc3nc(N4CCOCC4)cc(C)c3c2)CC1 | inactive: 13.8% |
| CCOc1ccc(C=NNc2ccc(S(=O)(=O)Nc3ccccc3C(=O)O)cc2[N+](=O)[O-])cc1 | inconclusive: -43.7% |
| O=C(NCCN1CCOCC1)c1ccc(/C=C2\Sc3ccccc3N(Cc3ccc(F)cc3)C2=O)cc1 | active: -82.1% |
| CCCn1c(O)c(N=NC(=O)CNC(=O)/C=C/c2ccc(OC)cc2)c2ccccc21 | inconclusive: -53.6% |
| C=CCn1c(SCC(=O)N(CCOC)c2c(N)n(CCCC)c(=O)[nH]c2=O)nnc1-c1ccc(Cl)cc1 | inconclusive: -50% |
| CCNC(=S)N/N=C(\C)c1ccc(Cl)s1 | inactive: -5.56% |
| Nn1c(-c2cccc(Br)c2)n[nH]c1=S | inconclusive: -52.1% |
| N/C(=N\N=C\c1cccs1)SC1CC(=O)N(c2ccc(Br)cc2)C1=O (centres undefined) | inconclusive: -43.8% |
| Cc1ccc(/C=N/Nc2nc(N3CCCCC3)nc(N3CCCCC3)n2)o1 | inactive: -21.5% |
| N#CC1=C(N)Oc2n[nH]c(-c3cccs3)c2C1C1CCCCC1 (centres undefined) | inconclusive: -55.6% |
| Cc1cc(C(=O)N/N=C/C=C/c2ccccc2)n[nH]1 | inactive: -18.4% |
| COc1ccc(N/C=C2\C(=O)CCc3c2oc2cc(Cl)c(O)c(Cl)c32)cc1 | inactive: 9.47% |
| CC1(C(=O)N/N=C/c2c(F)c(F)c(F)c(F)c2F)CC1(Cl)Cl (centres undefined) | active: -67.6% |
